The source of these data is PubChem BioAssay AID360 (National Center for Advancing Translational Sciences (NCATS), 2006).

Structures are written as SMILES. Hit rate of the full screen: of about 48,000 compounds, about 550 (1.1%) were called active. Another 4% or so got no clear call; they are omitted. No stated cut-off is given here; in the data, active means potency below about 15 µM; inconclusive means mostly about 16 µM to 33 µM; inactive means weaker than that. Some of the results follow.
Potency means the concentration at half of the fitted maximal effect.

The target in the assay is Lysosomal acid glucosylceramidase (Homo sapiens) (UniProt P04062). In words: Glucocerebrosidase.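 Further: the screen sought inhibitors.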 To be noted: purified enzyme, resorufin glucoside fluorescence (screen aimed at inhibitors), 20 min; series mostly up to 77 µM. An outline of the steps: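 Compounds titrated against 0.2 nM normal enzyme, 30 uM resorufin beta-D-glucopyranoside substrate, citrate/phosphate buffer with taurocholate and tween-20, pH 5.9. Reaction ran 20 min at room temperature; fluorescence (Ex 548/Em 600) gave AC50.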
UniProt P04062, sequence (P04062 whole entry, looked up): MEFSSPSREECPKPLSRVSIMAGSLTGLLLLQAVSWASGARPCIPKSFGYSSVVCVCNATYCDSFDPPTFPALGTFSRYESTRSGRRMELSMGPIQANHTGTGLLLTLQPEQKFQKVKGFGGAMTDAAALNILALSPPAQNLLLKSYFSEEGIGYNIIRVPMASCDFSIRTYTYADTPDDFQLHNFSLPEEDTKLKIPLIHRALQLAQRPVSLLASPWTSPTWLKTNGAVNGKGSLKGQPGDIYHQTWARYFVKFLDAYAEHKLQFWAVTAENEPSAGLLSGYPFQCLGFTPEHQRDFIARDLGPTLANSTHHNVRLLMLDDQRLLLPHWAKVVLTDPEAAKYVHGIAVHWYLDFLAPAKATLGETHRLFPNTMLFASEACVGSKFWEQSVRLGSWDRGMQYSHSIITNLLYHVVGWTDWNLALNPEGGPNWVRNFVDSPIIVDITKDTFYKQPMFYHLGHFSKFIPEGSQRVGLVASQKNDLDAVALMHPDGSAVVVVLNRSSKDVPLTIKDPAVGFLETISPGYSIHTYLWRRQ
Take `O=C(CCCSc1nc2ccccc2s1)Nc1nccs1`: the Potency is inactive: > 76.9 µM. With `Cc1ccc(CNC(=O)CCCn2c(=O)c3ccccc3n(CC(=O)NC3CCCC3)c2=O)cc1` the figure was inactive: > 76.9 µM; with `Cn1c(SCC(=O)NC2CCCCC2)nnc1-c1cc2cc(Cl)ccc2o1`, inactive: > 76.9 µM. As for `CC(=O)Nc1cccc(C(=O)OCc2ccccc2)c1`, the Potency was inactive: > 76.9 µM. For `O=C(CN1CCN(C(=O)N2CCOCC2)CC1)Nc1ccc(Br)cc1`, the Potency is inactive: > 76.9 µM. With `CCS(=O)(=O)N1CCC(C(=O)NCCN2CCN(Cc3ccccc3)CC2)CC1` the figure was inactive: > 76.9 µM; with `Cc1ccc2cccc(O)c2[n+]1[O-]`, inactive: > 76.9 µM. With `CC(C)NC(=O)CCS(=O)(=O)c1ccc(Br)s1` the figure was inactive: > 76.9 µM; with `COC(=O)c1sc(S(=O)(=O)NCc2cccs2)c(C(=O)OC)c1C`, inactive: > 76.9 µM.

Regarding `CC(=O)ON1C(C)(C)CC(OC(=O)c2ccccc2)CC1(C)C`, the Potency was inactive: > 76.9 µM.

Take `CCc1ccccc1NC(=O)CCc1nc(-c2ccc(C)cc2)no1`: the Potency was inactive: > 76.9 µM. With `CN(CP(=O)(O)CN(C)S(C)(=O)=O)S(C)(=O)=O` the figure was inactive: > 76.9 µM; with `COc1ccc(-c2nnc(CSc3nnc(-c4ccncc4)n3C3CCCCC3)o2)cc1OC`, inactive: > 76.9 µM; with `CC(C)c1nnc(NC(=O)c2cnccn2)s1`, inactive: > 76.9 µM. With `O=c1c2c(-c3ccco3)csc2nc(SCc2cn3cccnc3n2)n1-c1ccccc1` the figure was inactive: > 76.9 µM; with `CSCCC(NS(=O)(=O)c1ccc2c(c1)OCCO2)C(=O)NCCc1ccccn1` (configuration not stated), inactive: > 76.9 µM; with `CC(=O)Nc1nn(C)c2nc3cc(C)ccc3cc12`, inactive: > 76.9 µM. The figure for `O=S1(=O)NC(=NCc2ccco2)c2ccccc21` is inactive: > 76.9 µM.

For `N#Cc1c(NCc2ccccc2)ccnc1NCc1cccnc1`, the Potency is inactive: > 76.9 µM.

Turning to `CCc1cc2c(=O)n(C(C)C(=O)OC3CCCCC3)cnc2s1` (configuration not stated), the Potency was inactive: > 76.9 µM.

In the case of `CCCCS(=O)(=O)NC1=NCN(C2CCN(Cc3ccccc3)CC2)CN1`, the Potency is inactive: > 76.9 µM.

Take `Cc1ccc(N(C(=O)C2CCCC2)C2C=CS(=O)(=O)C2)cc1` (configuration not stated): the Potency was inactive: > 76.9 µM. The figure for `COC(=O)c1ccc(C)c(NC(=O)Cc2coc3cc(OC)ccc23)c1` is inactive: > 76.9 µM. With `O=C(NCC(=O)N(c1ccc2c(c1)OCO2)C(C(=O)NC1CCCC1)c1ccncc1)c1ccco1` (configuration not stated) the figure was inactive: > 76.9 µM; with `O=C(CSC1=NCCS1)N1CCc2ccccc21`, inactive: > 76.9 µM; with `Cc1cc(C(F)(F)F)nn1CC(=O)N1CCCC1`, inactive: > 76.9 µM.

Turning to `O=C(Nc1nnc(CC(=O)N2CCOCC2)s1)c1cccs1`, the Potency was inactive: > 76.9 µM. The figure for `COc1ccc2c(c1)C(C)CC(C)(C)N2C(=O)CSc1ncn[nH]1` (configuration not stated) is inactive: > 76.9 µM; for `O=C1c2ccccc2NC(c2ccc3c(c2)OCCO3)N1c1ccc2c(c1)OCCO2` (configuration not stated) it is inactive: > 76.9 µM; for `Cc1cc(C)c2c(n1)nn1c(NCCCN3CCOCC3)cc(C)nc21` it is inactive: > 76.9 µM.

With `Cn1c(CCNC(=O)c2ccccc2)nc2cc(NC(=O)c3ccco3)ccc21`, the Potency was inactive: > 76.9 µM. With `Cc1onc(-c2ccccc2Cl)c1C(=O)NCc1ccccn1` the figure was inactive: > 76.9 µM; with `Cc1noc(C)c1CSc1nnc2n(-c3ccccc3)c(=O)c3ccccc3n12`, inactive: > 76.9 µM; with `CC(=O)NCCc1csc(-c2ccccc2)n1`, inactive: > 76.9 µM. As for `COc1ccccc1NC(=O)CSc1nc2nc(C)cc(C)c2c(=O)[nH]1`, the Potency was inactive: > 76.9 µM. The figure for `C=CCSc1n[nH]c(-c2ccc(OC)cc2)n1` is inactive: > 76.9 µM; for `O=C(COc1nnnc2ccccc12)N1CCCc2ccccc21` it is inactive: > 76.9 µM.

As to `CCCCC(=O)NCCc1cc2ccc(OC)cc2[nH]c1=O`, the Potency is inactive: > 76.9 µM. The figure for `COC(=O)Nc1c(-c2ccccc2)nc2ccccn12` is inactive: > 76.9 µM; for `Cc1noc(NS(=O)(=O)c2ccc(NC(=O)c3ccoc3C)cc2)c1C` it is inactive: > 76.9 µM.

For the compound `CCCCNC(=O)CCCn1c(=S)[nH]c2cc3c(cc2c1=O)OCO3`, the Potency was inactive: > 76.9 µM. With `CCC(Sc1nnnn1-c1ccccc1)C(=O)NC(C)c1ccccc1` (configuration not stated) the figure was inactive: > 76.9 µM.

On to `Cc1ccc(-c2cc(C(F)(F)F)c(C#N)c(SCCC#N)n2)o1`, for which the Potency was inactive: > 76.9 µM. `O=C(CCSc1nc(-c2ccco2)cc(C(F)(F)F)n1)NCC1CCCO1` (configuration not stated): the Potency is inactive: > 76.9 µM. For the compound `CCc1c(C(=O)NCc2ccccc2Cl)[nH]c(C)c1C(C)=O`, the Potency is inactive: > 76.9 µM. The figure for `CC(C)NC(=O)CSc1nnc2sc3ccccc3n12` is inactive: > 76.9 µM; for `COC(=O)NC1(C(F)(F)F)C(=O)NC(C)=C1C(=O)OC` (configuration not stated) it is inactive: > 76.9 µM. The figure for `CC(=O)c1ccccc1NS(=O)(=O)c1c(C)nn(-c2ccccc2)c1C` is inactive: > 76.9 µM; for `Cc1ccc(NC(=O)CN2CCCCCC2)c(Br)c1` it is inactive: > 76.9 µM; for `CCOC(=O)Nc1ccc(S(=O)(=O)Nc2cc(C)on2)cc1` it is inactive: > 76.9 µM. The figure for `Cc1ccccc1-n1c(SCC(=O)c2cc(C)n(C)c2C)nnc1-c1ccncc1` is inactive: > 76.9 µM; for `COc1cccc(C(=O)Cn2c(=N)n(C)c3ccccc32)c1` it is “inactive”.

Take `O=C(Nc1cccc(Br)c1)c1ccn[nH]1`: the Potency is inactive: > 76.9 µM. With `CS(=O)(=O)N1CCN(c2ccc(NC(=O)c3ccc(Br)o3)cc2)CC1` the figure was inactive: > 76.9 µM; with `Cc1oc2nc(SCC(=O)N3CCCCC3)nc(N)c2c1C`, inactive: > 76.9 µM; with `Cc1cc(Nc2ccc(N3CCC(C)CC3)cc2)n2ncnc2n1`, inactive: > 76.9 µM. The figure for `COc1cccc(OC)c1C(=O)Nc1cc(Cl)ccc1N1CCOCC1` is inactive: > 76.9 µM; for `Cc1nnc(C)c2c(C)n(Cc3ccc4c(c3)OCO4)c(C)c12` it is inactive: > 76.9 µM. With `CCn1cc(NC(=O)Nc2ccccc2C(=O)OC)c(C(N)=O)n1` the figure was inactive: > 76.9 µM.

Consider `COc1ccc(CNC(=O)C(OC(C)=O)c2ccccn2)cc1` (configuration not stated), for which the Potency was inactive: > 76.9 µM.

`CCC(CC)n1[nH]c(=O)c2c(C)cc(C)nc21`: the Potency is inactive: > 76.9 µM. For the compound `CCOC(=O)c1cc2c(=O)n3ccccc3nc2n(C(C)C)c1=NC(=O)c1ccncc1`, the Potency was inactive: > 76.9 µM. The figure for `O=C(NCCS(=O)CCNC(=O)C(F)(F)F)C(F)(F)F` is inactive: > 76.9 µM; for `O=c1c2[nH]c3ccccc3c2ncn1Cc1ccncc1` it is inactive: > 76.9 µM; for `CN1C(=O)c2ccccc2C(C(=O)NCC2CCCO2)C1c1c[nH]c2ccccc12` (configuration not stated) it is inactive: > 76.9 µM. The figure for `O=C(CN1CCN(Cc2ccc3c(c2)OCO3)CC1)Nc1ccc2c(c1)OCCO2` is inactive: > 76.9 µM; for `COc1cc2[nH]c(=S)n(NC(=O)CC(C)C)c(=O)c2cc1OC` it is inactive: > 76.9 µM.

On to `COc1cccc(NC(=O)N(Cc2ccco2)C(C)c2cccs2)c1` (configuration not stated), for which the Potency is inactive: > 76.9 µM. Regarding `O=C(CC1N=C2c3ccccc3N=C(SCc3ccc(F)cc3)N2C1=O)NCc1ccco1` (configuration not stated), the Potency is inactive: > 76.9 µM. Regarding `CC1(C)CC(=O)C=C(Nc2ccccc2O)C1`, the Potency was inactive: > 76.9 µM. For the compound `Cc1cc(=O)n2c(n1)OC(CO)C2` (configuration not stated), the Potency is inactive: > 76.9 µM. The figure for `Cc1cc(C)cc(NC2=NCC(=O)N2Cc2ccccc2)c1` is inactive: > 76.9 µM. Regarding `Cc1cc2c(c(=O)n1CCN(C)C)C(c1ccc(Cl)cc1)C(C#N)=C(N)O2` (configuration not stated), the Potency is inactive: > 76.9 µM. With `COc1ccc(OC)c(NS(=O)(=O)c2ccc3c(c2)n(C)c(=O)n3C)c1`, the Potency was inactive: > 76.9 µM. For `CCOC(=O)c1oc2ccccc2c1NC(=O)COc1ccc(F)cc1`, the Potency was inactive: > 76.9 µM. With `O=C(Cn1nnc(-c2ccc(CN3CCOCC3)cc2)n1)NC1CCCCC1` the figure was inactive: > 76.9 µM; with `CC1(C)CNC(=O)C=C(c2ccccc2)C1`, inactive: > 76.9 µM. With `c1ccc(Cn2nnnc2C(c2cccs2)N2CCOCC2)cc1` (configuration not stated) the figure was inactive: > 76.9 µM; with `O=C(/C=C/Nc1ccc(F)c(Cl)c1)c1ccco1`, inactive: > 76.9 µM; with `CCOC(=O)c1oc2ccccc2c1NC(=O)COc1cccc(OC)c1`, inactive: > 76.9 µM.

Take `CCN(CC)S(=O)(=O)c1cccc(-c2nnc(SCC(=O)NC)n2CCc2ccccc2)c1`: the Potency was inactive: > 76.9 µM.

In the case of `CCCCOC(=O)CSc1nc2c(cc1C#N)C(=O)CC(C)(C)C2`, the Potency was inactive: > 76.9 µM.

Turning to `O=C(CN1C(=O)c2ccccc2C1=O)Nc1ccc(N2CCOCC2)cc1`, the Potency is inactive: > 76.9 µM.

For the compound `COCCn1nnnc1C1(N(Cc2cc3cc(C)ccc3[nH]c2=O)CC2CCCO2)CCN(C)CC1` (configuration not stated), the Potency entry was “inactive”.

Regarding `COc1ccccc1N(CC(=O)Nc1ccccc1C(=O)NCC(C)C)S(C)(=O)=O`, the Potency is inactive: > 76.9 µM. The figure for `Cc1nc(COC(=O)c2ccc(CO)cc2)cs1` is inactive: > 76.9 µM; for `CC(C)CCn1cnc2c(cnn2-c2ccc(F)cc2)c1=O` it is inactive: > 76.9 µM.

As for `Cc1noc(C)c1S(=O)(=O)N1CCCC(C(=O)N2CCC(C)CC2)C1` (configuration not stated), the Potency is inactive: > 76.9 µM. With `COc1cccc(=O)c2c(C)oc(C)c12` the figure was inactive: > 76.9 µM; with `Cc1ccc(-c2noc(-c3ccccc3C(=O)NCC3CCCO3)n2)cc1` (configuration not stated), inactive: > 76.9 µM; with `O=C(Cn1cnc2c(nnn2Cc2ccc(F)cc2)c1=O)N1CCCc2ccccc21`, inactive: > 76.9 µM. The entry for `COc1ccccc1C(=O)Nc1ccc(S(=O)(=O)Nc2cc(C)on2)cc1` is “inactive”.
